From the supplement of paper PMC10126150
Values marked as one replicate rest on one cluster of the flow cell; about a third of the high ones do not repeat.

Test system: ATP
Test: switch fluorescence ratio, 500 uM ATP over buffer (Cy3 cluster intensity, sum of 5 cycles each) (fold (ratio)); higher = stronger signal-on switching upon ATP binding; sequences stand for … in TCGTCGGCAGCGTCAGATGTGTATAAGAGACAGTTTTTTTTTTTTTTTTTTTTTTTTT…TC
Conditions: aptamer strand: ATP DNA aptamer (quencher-CACCTGGGGGAGTATTGCGGAGGAAGG + anchor), 100 nM annealed; ATP concentration: 500 uM; one replicate
Method in brief: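 Clusters carrying Cy3-labelled switching strands on a modified Illumina MiSeq flow-cell were annealed to 100 nM quencher-labelled ATP aptamer and imaged in selection buffer. They were imaged again after 15 min with 500 uM ATP at 22 °C, over five buffer/ATP cycles with NaOH stripping and re-annealing in between. For each cluster, the fluorescence ratio is the summed Cy3 intensity of the target cycles divided by that of the buffer cycles, averaged per switch-domain sequence. Clusters outside 100-1000 RFU were left out.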
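Note: ATP exposure 15 min at 22 °C before imaging.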

With AGAGCTAAAT the switch fluorescence ratio was 0.96.

Work on GTAAAAAGCT yielded a switch fluorescence ratio of 1.04.

Work on AGCAAAAAAG yielded a switch fluorescence ratio of 0.937.

TCGGTATTCG was tested, and the switch fluorescence ratio was 0.943.

In the case of ACAGGAGAAT, the switch fluorescence ratio is reported as 1.04.

Sequence GCCTAGGAGA has a switch fluorescence ratio of 1.04.

For TCCAATCGGA, the switch fluorescence ratio was 1.

CTGTAATTCA showed a switch fluorescence ratio of 1.01.

ATGTGCAGGT showed a switch fluorescence ratio of 1.04.

Work on ACCTCGAGCC yielded a switch fluorescence ratio of 1.08.

Work on TGAGCTGAGT yielded a switch fluorescence ratio of 1.01.

TTTGAAACCC was tested, and the switch fluorescence ratio was 1.14.

TATGGGTATA was tested, and the switch fluorescence ratio was 1.01.

Work on CGAGACGCCA yielded a switch fluorescence ratio of 1.13.

AGAGTTTAGT gave a switch fluorescence ratio of 1.01.

GCTCTCCCGT was tested, and the switch fluorescence ratio was 1.14.

Sequence TCAACTTTGA has a switch fluorescence ratio of 1.02.

Work on TCGTCGAGGG yielded a switch fluorescence ratio of 1.

CCTAAGTGTG showed a switch fluorescence ratio of 1.07.

CGGTCTTTTA showed a switch fluorescence ratio of 0.929.

For ACAATCACGC, the switch fluorescence ratio was 1.25.

Work on GTTGAGGATT yielded a switch fluorescence ratio of 1.

For TGCACGACAA, the switch fluorescence ratio was 1.16.

TTGGATAGTC gave a switch fluorescence ratio of 0.959.

CTTATGGGAC gave a switch fluorescence ratio of 0.991.

With GAATTGCCGG the switch fluorescence ratio was 0.94.

Work on GCGTAAATTT yielded a switch fluorescence ratio of 0.967.

For ACGGCTGATA, the switch fluorescence ratio was 0.976.

In the case of GGTAAGAACC, the switch fluorescence ratio is reported as 1.01.

For GTTAGATAAT, the switch fluorescence ratio was 1.02.

For GGAGAAGCAA, the switch fluorescence ratio was 1.55.

AGGCACGAAG was tested, and the switch fluorescence ratio was 0.983.

In the case of TCTTAACTCA, the switch fluorescence ratio is reported as 1.02.

In the case of GGCCACCGGT, the switch fluorescence ratio is reported as 0.976.

With AATTTATAT the switch fluorescence ratio was 1.03.

Work on GGCCGGTATA yielded a switch fluorescence ratio of 0.99.

AAGCACATCA was tested, and the switch fluorescence ratio was 1.2.

With TATCTACTTT the switch fluorescence ratio was 1.02.

CTTCAGGAAC showed a switch fluorescence ratio of 0.996.

With ATAATGTCAA the switch fluorescence ratio was 0.994.

For GGGAGCATGT, the switch fluorescence ratio was 0.988.

AATTTGTCGT gave a switch fluorescence ratio of 1.04.

CGTTCGGTCC was tested, and the switch fluorescence ratio was 1.03.

GCAGGAATAA gave a switch fluorescence ratio of 1.33.

For GGTCTGGACT, the switch fluorescence ratio was 1.03.

Sequence TAGAGCCCC has a switch fluorescence ratio of 1.06.

GAGTCTAAGG showed a switch fluorescence ratio of 0.991.

ATGGCGCTAG showed a switch fluorescence ratio of 0.984.

In the case of TGTCAAGGAT, the switch fluorescence ratio is reported as 1.

GGCAGTTTCG was tested, and the switch fluorescence ratio was 0.976.

Work on TTCAACTGTA yielded a switch fluorescence ratio of 1.11.

In the case of GGTTCCTAA, the switch fluorescence ratio is reported as 1.03.

TGTTTAGTT was tested, and the switch fluorescence ratio was 1.04.

For CTGGGCAGTA, the switch fluorescence ratio was 1.11.

With TCCCCCAAGG the switch fluorescence ratio was 1.27.

GGATTGCGCG was tested, and the switch fluorescence ratio was 1.

In the case of CGATACGTTA, the switch fluorescence ratio is reported as 1.1.

TTTCCAACT was tested, and the switch fluorescence ratio was 1.01.

Work on AGTACTGGTT yielded a switch fluorescence ratio of 1.02.

For CGGCTAGCAG, the switch fluorescence ratio was 1.

With ACAGCCTTAA the switch fluorescence ratio was 0.981.

In the case of TGTTGATGAT, the switch fluorescence ratio is reported as 0.983.

Sequence CCGGTTGGGA has a switch fluorescence ratio of 1.16.

CCTCTTGTG gave a switch fluorescence ratio of 1.01.

TGAAGCCGTG was tested, and the switch fluorescence ratio was 1.15.

Sequence GTTTGTTATT has a switch fluorescence ratio of 1.01.

ATTTGTGCCA showed a switch fluorescence ratio of 0.977.

ATGGGATGTA showed a switch fluorescence ratio of 1.03.

For CGATTAGGG, the switch fluorescence ratio was 0.987.

CAAACGGACT showed a switch fluorescence ratio of 1.19.

GAAGATCAGC gave a switch fluorescence ratio of 0.935.

Work on ATAAATCCAA yielded a switch fluorescence ratio of 0.918.

AAGGGTTGGA showed a switch fluorescence ratio of 0.962.

For TAGCGGACGT, the switch fluorescence ratio was 1.01.

CAAGGGTCGA was tested, and the switch fluorescence ratio was 1.02.

In the case of AATAGTTACG, the switch fluorescence ratio is reported as 0.985.

Sequence TACAGGTGCG has a switch fluorescence ratio of 1.44.

In the case of CCGTAAAAGG, the switch fluorescence ratio is reported as 1.07.

Sequence GCTGGTAGTG has a switch fluorescence ratio of 0.989.

CCAGTAAGCG showed a switch fluorescence ratio of 1.02.

GCGTCGGAAC was tested, and the switch fluorescence ratio was 1.03.

CTCGACTATC was tested, and the switch fluorescence ratio was 1.15.

Sequence AGTGTAGGGC has a switch fluorescence ratio of 1.03.

GCGGGGCGAG was tested, and the switch fluorescence ratio was 1.33.

TTAAAGGTCG was tested, and the switch fluorescence ratio was 1.01.

Sequence AATTCCGTGT has a switch fluorescence ratio of 1.01.

TTTCCTTTGC showed a switch fluorescence ratio of 1.31.

CTACTTTCCT showed a switch fluorescence ratio of 1.3.

Work on AACTGGTCCC yielded a switch fluorescence ratio of 1.03.

Sequence CGTTTCCGTT has a switch fluorescence ratio of 1.08.

With GGGTATCTCA the switch fluorescence ratio was 0.986.

For AGTTGCCCGC, the switch fluorescence ratio was 1.02.

TATTTTGAT showed a switch fluorescence ratio of 0.991.

With TAAGTGGGTC the switch fluorescence ratio was 1.03.

In the case of CTCTACGTCA, the switch fluorescence ratio is reported as 1.32.

GCCCCCGTTG gave a switch fluorescence ratio of 1.33.

With TCCCTTTATT the switch fluorescence ratio was 1.26.

CAGGTGGCTT was tested, and the switch fluorescence ratio was 1.3.

Work on AAGGAGGTGA yielded a switch fluorescence ratio of 0.993.

Work on ATGCCCGCCG yielded a switch fluorescence ratio of 1.02.

In the case of TCGCCAACAT, the switch fluorescence ratio is reported as 0.983.

In the case of TTCGGGATGG, the switch fluorescence ratio is reported as 0.962.

For CGGCGAATGG, the switch fluorescence ratio was 1.05.

In the case of TTTCCTCACC, the switch fluorescence ratio is reported as 1.22.

TTGATCTGGA gave a switch fluorescence ratio of 0.957.

AGCGGCGTA gave a switch fluorescence ratio of 1.

ACGGAGATGC was tested, and the switch fluorescence ratio was 1.37.

ATTGCCTTAC showed a switch fluorescence ratio of 2.17.

With AATTTCGCTA the switch fluorescence ratio was 1.03.

AGCTTAGACA showed a switch fluorescence ratio of 1.01.

With TTAATCCAGG the switch fluorescence ratio was 1.22.

TACTTTAAGC showed a switch fluorescence ratio of 1.09.

Sequence CCAGATCGCA has a switch fluorescence ratio of 1.18.

For TTTGTACAAT, the switch fluorescence ratio was 1.01.

Sequence TATAAGGTCA has a switch fluorescence ratio of 0.993.

Work on GATTCGCCCT yielded a switch fluorescence ratio of 1.04.

Sequence CTAAGAATTA has a switch fluorescence ratio of 0.992.

In the case of TGACATTTTC, the switch fluorescence ratio is reported as 1.

Sequence TGCATTACAC has a switch fluorescence ratio of 1.26.

In the case of GCGGTGAGCA, the switch fluorescence ratio is reported as 1.03.

ATGTAGCGCC showed a switch fluorescence ratio of 0.981.

Work on ATGGGACAGA yielded a switch fluorescence ratio of 1.

Sequence CCGTGGTGCG has a switch fluorescence ratio of 1.04.

Sequence CTCCTGCATT has a switch fluorescence ratio of 5.24.

CCGAAAAAGG showed a switch fluorescence ratio of 1.05.

For GCTTGGAACG, the switch fluorescence ratio was 1.01.

For TCCCTGATTT, the switch fluorescence ratio was 1.05.

CACACACAAG showed a switch fluorescence ratio of 1.2.

For TTTCTAGAC, the switch fluorescence ratio was 1.04.

For GAAAAGCGTT, the switch fluorescence ratio was 1.09.

For CGATTGCGGG, the switch fluorescence ratio was 1.02.

GCACTGGCCC showed a switch fluorescence ratio of 1.05.

For CACCTATTTA, the switch fluorescence ratio was 1.05.

In the case of ACGGTGTCAA, the switch fluorescence ratio is reported as 1.04.

For AGGATTGGGA, the switch fluorescence ratio was 1.02.

Work on GCACTCAGAA yielded a switch fluorescence ratio of 0.988.

In the case of TCAGGGTAAA, the switch fluorescence ratio is reported as 1.01.

CAGACATGAC gave a switch fluorescence ratio of 1.05.

With GTTGTGACGT the switch fluorescence ratio was 0.975.

In the case of GACCAGTACA, the switch fluorescence ratio is reported as 1.04.

With ACATCGTAAC the switch fluorescence ratio was 1.04.

For TTACAGGGGT, the switch fluorescence ratio was 1.15.

AATCCA was tested, and the switch fluorescence ratio was 1.

For AGCTACATTG, the switch fluorescence ratio was 0.976.

In the case of TGAGCTTTT, the switch fluorescence ratio is reported as 1.07.

With TTCGCAGCAC the switch fluorescence ratio was 2.65.

Work on CGGAACGGTC yielded a switch fluorescence ratio of 1.02.

With CGTCCTGGTA the switch fluorescence ratio was 1.07.

In the case of AATCACGTGG, the switch fluorescence ratio is reported as 0.973.

Work on CACATCAGGC yielded a switch fluorescence ratio of 1.03.

For CTTAGGTTGC, the switch fluorescence ratio was 0.998.

In the case of AAGAAAATGG, the switch fluorescence ratio is reported as 0.973.

In the case of GTGCGGGTCT, the switch fluorescence ratio is reported as 0.943.

ATGCATACAG gave a switch fluorescence ratio of 1.03.

For TAGCGTACT, the switch fluorescence ratio was 1.22.

For AGCGCTAAAC, the switch fluorescence ratio was 0.984.

For AAGGAGTCA, the switch fluorescence ratio was 1.03.
